Experimental data as given in the supplement of paper PMC11417369.
The list shows a part of the results.

tested on: PfSIP2 AP2 domain 1 (GST-tagged); experiment: gcPBM binding intensity (ln(normalized median fluorescence intensity)); higher = stronger DNA binding
Outline: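 Alexa488 anti-GST antibody, scanned at 488 nm, detected GST-tagged P. falciparum DNA-binding domains that had been expressed in E. coli and incubated for 1 h on an Agilent 4 × 180k array. The array carried primer-extended double-stranded 36-bp intergenic genomic probes and negative controls. Binding intensity is the highest Masliner-normalised natural-log median intensity across replicate spots of either orientation of each probe.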

Sequence	gcPBM binding intensity (ln)
GAGAAAAGGAAATAACGTACACATATGCATATCCAA [XGTACX_site5858]	7.49
GTGTTCTTGTTATACACACACATATATATATATATA [CACACA_site1032]	9.41
TATTTATTGTGACACTTTTATTATTTTATGATAAAA [CACACA_negctrl_site37]	6.97
TGAAAGAAGCATAAATGTACACACATATTTATATAT [XGTACX_site2645]	6.91
GAGAGGTCAGTTCACAGTACCCAGAAACTCTACGAG [XGTACX_site2559]	6.4
GTAATATTTTATAGTAGTACATATTTTTATTATTTT [XGTACX_site3333]	6.87
AATATTTATTTAATTTCACACAGGTCTTTTTTTTTT [CACACA_site5188]	6.73
TTGTTCTTATTTCATTTTTATATGATATTTCATTAT [CACACA_negctrl_site1619]	7.17
TGAAGAATATTTTTCACACATATATATATATATATA [CACACA_site6080]	9.69
GACAAACAATATGAATGTACATAAAAATATAACTAA [XGTACX_site1167]	7.19
TGAATATATAAATATGCACACTTCTATTATAAATAA [CACACA_site5796]	8.37
TAACATATAAGTGTGTGTACGTACTGCGTATAATAT [XGTACX_site8597]	7.33
ATATATATATATATATGTACATATTTTTGTTTGATG [XGTACX_site51]	9.34
CAGATATTCATATAAACACACATACAAATTATGTAT [CACACA_site4258]	6.95
TATATATATAATTAAGCATGCTAGAAACCTTTGAAA [TGCATGCA_site489]	7.47
TACAATCTAAAATACACACGCACACCGAAAAAAAAA [CACACA_site3520]	7.22
ATATATATATATATTGCACACACAATTATTATTATT [CACACA_site8721]	9.3
AAATTATTTCTTTGCGCATGTAGCTTTTATACTATT [TGCATGCA_site819]	6.86
ACATAAATAATAAAAACACACATATGTACCTATATA [CACACA_site6982]	7.11
AATACATGCTAAAAACGTACACGTATAAAATTATAT [XGTACX_site3169]	7.22
GGTGAAATTATTTCTACATGCAGAAATAATTAATTA [TGCATGCA_site194]	6.93
TTTTTTTTTTTGGCTAGTACATATGTATTTAAAATG [XGTACX_site7770]	7.25

Sequence	gcPBM binding intensity (ln)
AATTTAATATAATGCACACATAAAAAAAAAATCAAA [CACACA_site1]	7.41
TGTTGTTCCAATTTTTGTACATAAAACATATATATA [XGTACX_site5719]	7.33
AAGAAAATATAAAATGCACACTATAAATTGTATATA [CACACA_site7928]	7.84
AAAAAAAAAAAAAATTGTACATTAAATTAAAAGAAA [XGTACX_site8708]	7.09
AAAAAAAAAAATACTTGTACTTATATAATATATTAT [XGTACX_site8333]	6.97
TTTTATCAATAAATTCGTACACATGAACTAGAGAGT [XGTACX_site5758]	7.35
TACATTCTAATAATTGCACACTGGTTATTAAAAGGA [CACACA_site1614]	7.16
TTTTTATTTATATTTCATTGAAGTTAAATTATTTTA [XGTACX_negctrl_site575]	6.93
ATTAGTATATTTCTCTGTACTTACATTAAAATATAA [XGTACX_site2217]	7.08
AATTTAATATTCATCTCTAAAGCTATAACAATTACT [CACACA_negctrl_site1079]	6.78
TCCTTAAAATATGGTTGTACGTACATCCTAGGTGTT [XGTACX_site7068]	7.34
ATACAAATTTATATTTCACACATTATTATATACTTA [CACACA_site6034]	7.05
TCTGAAAATTAGAAAAGTACAAAATGGTATAGGAAA [XGTACX_site4396]	7.18
TGTATTATATATGTGTGTACATATTTTTTTTTTTTT [XGTACX_site3351]	7.45
ATATATATATATAAATGTACAGGCTTATCTCTTATT [XGTACX_site1828]	9.75
AAATTATTTCAAATGTTGCACTAAAAATAAAATTAT [GTGCAC_site9460]	7.78
CGCACACGCAGACACACACACACATATAAATAAATA [CACACA_site7101]	7.29
AAAAAAAAGAAAAAAAAAAAAAAAAAAAAAAAAAAA [CACACA_negctrl_site489]	7.09
TATATAAATAAAAAAAGTACATTACTTTTTAATTTA [XGTACX_site285]	6.96
ATCATACCTTTTAATGTACACACATTTCTTTTTTGT [CACACA_site8198]	7.13
AGAAAGGATATTATATGTACATATCTTTGTATTTTT [XGTACX_site5040]	6.87
CATACCCATAAACACACACACATATATACCTATATA [CACACA_site4745]	7.13
